{"source": "the supplement of paper PMC11417369", "note": "The other results are listed elsewhere or left out.", "data": [{"test_system": "PfSIP2 AP2 domain 1 (GST-tagged)", "test": "gcPBM binding intensity (ln(normalized median fluorescence intensity)); higher = stronger DNA binding", "method_in_brief": "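An Agilent 4 × 180k array carrying primer-extended double-stranded 36-bp intergenic genomic probes and negative controls received GST-tagged P. falciparum DNA-binding domains expressed in E. coli, about 25 μg on average, for 1 h. The binding buffer contained 1× PBS, 1% milk, 0.2 mg/ml BSA, 0.5% salmon testes DNA and 0.03% Triton X-100. Binding intensity is the top Masliner-normalised natural-log median intensity across replicate spots of either probe orientation, read after Alexa488 anti-GST antibody staining and a 488 nm scan.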", "values": [{"sequence": "TTTTTTTTTTTTTAAACATGCAAAATATATAATTTT [TGCATGCA_site633]", "gcPBM binding intensity (ln)": 7.11}, {"sequence": "AACACACACATATATATATATATATATATATATATA [GTGCAC_negctrl_site573]", "gcPBM binding intensity (ln)": 9.64}, {"sequence": "TTTTTAATATTGTATGCATGTCGTAATAAAAAATTT [TGCATGCA_site259]", "gcPBM binding intensity (ln)": 7.17}, {"sequence": "ATAATAAACATATATGTACACACATATACATATATA [CACACA_site8924]", "gcPBM binding intensity (ln)": 7.19}, {"sequence": "TTGAACCCCACTAACACACACACGCACGCTCAGAAA [CACACA_site2983]", "gcPBM binding intensity (ln)": 6.96}, {"sequence": "ATATTAATTATAACTTGTACGTAAAAGGAAAACAAT [XGTACX_site3269]", "gcPBM binding intensity (ln)": 7.35}, {"sequence": "TGCTATTTCATATTCTGTACTAAAACAAGATAATAA [XGTACX_site3852]", "gcPBM binding intensity (ln)": 7.47}, {"sequence": "ATATATATATATAGAAGTACTCTTATATATTTTATA [XGTACX_site1384]", "gcPBM binding intensity (ln)": 9.26}, {"sequence": "AAAAAAAAAAAAAATACACACACATAAAAAAAAAAA [CACACA_site8555]", "gcPBM binding intensity (ln)": 7.35}, {"sequence": "GATATGGAATATATGTGTACATATATATATATTATA [XGTACX_site1724]", "gcPBM binding intensity (ln)": 7.23}, {"sequence": "CAAATTTTTAAAAATGCATGTTCATCCATCCCATAT [TGCATGCA_site467]", "gcPBM binding intensity (ln)": 6.87}, {"sequence": "TTTGTATGATCATAAAGTACTAATTTACATTCAGCA [XGTACX_site8596]", "gcPBM binding intensity (ln)": 6.91}, {"sequence": "TTTTCATTCTTATATAAATATTATTTTATATAAAAT [GTGCAC_negctrl_site674]", "gcPBM binding intensity (ln)": 6.88}, {"sequence": "ATATATGAAAATATATGTACACAACATATAAAATAG [XGTACX_site5132]", "gcPBM binding intensity (ln)": 7.33}, {"sequence": "AATTATATACCATGCACACAAATATTCATACAGGAA [CACACA_site4057]", "gcPBM binding intensity (ln)": 7.59}, {"sequence": "AAAAATATATATATATTTCTTCTTTGTTAAAATGTA [CACACA_negctrl_site1459]", "gcPBM binding intensity (ln)": 6.86}, {"sequence": "GTAGAATCAGTATTCACACATAAATGTATCCAAATG [CACACA_site5395]", "gcPBM binding intensity (ln)": 6.92}, {"sequence": "ATTTATATAAAATTAAAATAATACAAATTTATTCAT [GTGCAC_negctrl_site305]", "gcPBM binding intensity (ln)": 6.73}, {"sequence": "TTTTCGCTTTTATAAAATTATATGAAAAAACTAAAA [XGTACX_negctrl_site139]", "gcPBM binding intensity (ln)": 6.99}, {"sequence": "TTATGGAAAAATATAACACACAATGATTTTTTATAA [CACACA_site1831]", "gcPBM binding intensity (ln)": 6.8}, {"sequence": "TGTAATACATGTTGTTGTACAATATCTTTAACTTTT [XGTACX_site1219]", "gcPBM binding intensity (ln)": 6.85}, {"sequence": "TATTGTAAAAAAGCAAAATTTATCACCTCCTTATTT [CACACA_negctrl_site172]", "gcPBM binding intensity (ln)": 6.72}, {"sequence": "TATAACTATGGGTGTACACATTAATCGTTTTTCTTT [CACACA_site5196]", "gcPBM binding intensity (ln)": 6.95}, {"sequence": "TACACAAAAATAAACACACACACATATAAATAAATA [CACACA_site6599]", "gcPBM binding intensity (ln)": 7.04}, {"sequence": "CCACTAAAGGCATATACACACATTTTTTAAATTGCC [CACACA_site2839]", "gcPBM binding intensity (ln)": 7}, {"sequence": "TTTTTTACATTCTGCACACAATTTATTTTTTTTTTT [CACACA_site4188]", "gcPBM binding intensity (ln)": 7.08}, {"sequence": "ATGAATGAATACGTTTTACACACTTGAATATAATTT [CACACA_site8237]", "gcPBM binding intensity (ln)": 6.85}, {"sequence": "TATTTCACAAAAAAAAAAAAAAAAAAGAAGCAAAAA [CACACA_negctrl_site1040]", "gcPBM binding intensity (ln)": 6.76}, {"sequence": "AACATAACAAAAAAAAAAAAAAATATATATATATAT [TGCATGCA_negctrl_site370]", "gcPBM binding intensity (ln)": 9.43}, {"sequence": "GTATATTGTACCATCACACATGTAAAACATAGATGT [CACACA_site5359]", "gcPBM binding intensity (ln)": 7.17}, {"sequence": "TCCTTAAAAAAACCTTAACACACATAAACTATAATT [CACACA_site9001]", "gcPBM binding intensity (ln)": 6.91}, {"sequence": "TTTTTTTTTAAGTTTGCACACATGGAAGACAAAAAT [CACACA_site2505]", "gcPBM binding intensity (ln)": 7.96}, {"sequence": "TAATACATAAATAATGTGCACATGGAAATATATCTT", "gcPBM binding intensity (ln)": 8.6}, {"sequence": "TATTTTATATACAGTGGTACTTTTTTTTTTTTTTTT [XGTACX_site2475]", "gcPBM binding intensity (ln)": 7.56}, {"sequence": "AAAAAAAAAAAAAAATCACACACAATATGAATTTAT [CACACA_site8100]", "gcPBM binding intensity (ln)": 7.07}, {"sequence": "ACATATATATTATAAGCATGCATGAGAAAATTTTTA [TGCATGCA_site1054]", "gcPBM binding intensity (ln)": 7.09}, {"sequence": "AATTGCTTCAAAATTAAACACACACTAATAAAAAAA [CACACA_site8855]", "gcPBM binding intensity (ln)": 7.11}, {"sequence": "AAAAAAAAAAAAAAAACACACATTTGAAGAAAAAAA [CACACA_site7389]", "gcPBM binding intensity (ln)": 7.56}, {"sequence": "AATAATAATAGAAACACACACACATTTTTAAGAATA [CACACA_site6692]", "gcPBM binding intensity (ln)": 6.74}, {"sequence": "TGAAAAAAAAAATGCACACGCATACAGATAATATGT [CACACA_site4526]", "gcPBM binding intensity (ln)": 7.12}, {"sequence": "ATTATTGCAATTTAATGTACATAATACAAATTTGCC [XGTACX_site2729]", "gcPBM binding intensity (ln)": 7.24}, {"sequence": "AATGAATAAATAAACACACACACATATATATATATG [CACACA_site18]", "gcPBM binding intensity (ln)": 7.29}, {"sequence": "TATATTCAAAAAAATTCATTTCTGATTTTTTTTTTT [CACACA_negctrl_site1085]", "gcPBM binding intensity (ln)": 6.52}, {"sequence": "TATACGTATACCTATACACACATATATATATATATA [CACACA_site1273]", "gcPBM binding intensity (ln)": 9.17}, {"sequence": "GATGAAATATCATTACGTACACAATAGTTTGTATTT [XGTACX_site5143]", "gcPBM binding intensity (ln)": 7.01}, {"sequence": "TTATTAATTATATATAGTACACATTTCACAGATGGG [XGTACX_site2349]", "gcPBM binding intensity (ln)": 7.23}, {"sequence": "TGAACACATACATACACACACACAAAAAAAAAAAAA [CACACA_site392]", "gcPBM binding intensity (ln)": 7.12}, {"sequence": "AAAATTATGCAGTAGGTGCAATACCCTCGGCTTTTT [GTGCAC_site9556]", "gcPBM binding intensity (ln)": 9.06}, {"sequence": "TTTTTTTTTTTTTTTGGTACACATTTTGGTTAATGG [XGTACX_site5109]", "gcPBM binding intensity (ln)": 6.88}, {"sequence": "ATAAAAAGGTTTAAAAAAAAAAAAAAAAAAAAAAAA [CACACA_negctrl_site412]", "gcPBM binding intensity (ln)": 6.82}, {"sequence": "AATATCTGAAAATAAAGTACAAACATATTATAAATA [XGTACX_site5738]", "gcPBM binding intensity (ln)": 6.82}, {"sequence": "TATTTCAAATGTTATGTGCACATATTAATCCTACTT [GTGCAC_site9738]", "gcPBM binding intensity (ln)": 8.13}, {"sequence": "AATAATAATTTAAAAAGTACATTCTAATAAACACGT [XGTACX_site1444]", "gcPBM binding intensity (ln)": 7.39}, {"sequence": "TACTTATTTGATTGGGTGCATATATATAGTATGTAT [GTGCAC_site9845]", "gcPBM binding intensity (ln)": 10.6}, {"sequence": "TTATTTATGAGGGTGACACACAAAAGAGTGTTAAGA [CACACA_site277]", "gcPBM binding intensity (ln)": 6.75}, {"sequence": "AAAAAAAAACACGCATGTACATAAAAATAATCATAC [XGTACX_site1086]", "gcPBM binding intensity (ln)": 7.05}]}]}
